Results as given in PubChem BioAssay AID485364 (National Center for Advancing Translational Sciences (NCATS), 2010).
The whole screen tested about 360,000 compounds, of which about 11,000 (3.1%) were called active. Inconclusive results, whose numbers are uncertain, are shown with a selection of clear calls. Calls follow the shape of the dose curve; as a rule, active = well fitted inhibition curve with a large enough effect; inconclusive = small, poorly fitted or top-dose-only effect; inactive = no such curve, though single readings can be large or run the other way. No potency is given beside an inconclusive call; the fits are too rough.

What follows are molecules tested against Schistosoma mansoni thioredoxin glutathione reductase (TGR) (UniProt Q962Y6) (assay: qHTS Assay for the Inhibitors of Schistosoma Mansoni Peroxiredoxins). Settings: purified TGR, DTNB reduction, TNB absorbance 405 nm; activity change, negative = inhibition: at 114 µM (top of the series) unless noted.
How it was run: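 First, TGR (20 nM dispensed) and NADPH were mixed with compound. Second, a 15 min room-temperature incubation followed. Third, further NADPH and then DTNB were added to start the reaction. Finally, TNB absorbance was monitored kinetically.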
% is scaled to controls: 0 for no effect and ±100 for the full control effect; potency is read from the fitted curve at half-maximal effect; tags tell the direction and shape of the fitted curve.
Also: nearly all actives have a fitted effect of over 60% in size.

| SMILES | activity change, negative = inhibition | Potency |
| --- | --- | --- |
| CCN(CC(=O)Nc1cccc(S(N)(=O)=O)c1)Cc1nc2ccccc2c(=O)[nH]1 | inactive: 2.33% |  |
| COc1ccccc1Cn1c(=S)[nH]c2ccc(Br)cc2c1=O | inactive: -0.248% |  |
| O=c1cccccc1NCc1ccccc1 |  | active: 35.5 µM |
| COc1ccc(S(=O)(=O)NCc2ccc(C(=O)NCCCN3CC(C)CC(C)C3)cc2)cc1 (centres undefined) |  | inconclusive [inhibitor, single point] |
| COc1ccccc1C(=O)Nc1ccccc1OCc1cc(=O)n2ccccc2n1 | inactive: 8.27% |  |
| Cc1ccc(SCCC(=O)OCn2nnc3ccccc3c2=O)cc1 |  | inconclusive [inhibitor, partial curve] |
| Cc1cc(=O)n(Cc2ccccc2)c(O)c1C#N |  | inconclusive [inhibitor, partial curve] |
| CC1CC(C)CN(CC(=O)c2cccs2)C1 (centres undefined) |  | inconclusive [inhibitor, partial curve] |
| CCN(C(=O)CSc1nc(N)cc(=O)[nH]1)c1c(N)n(Cc2ccccc2)c(=O)[nH]c1=O | inactive: 3.4% |  |
| Cc1cc(C)cc(N2C(=O)CC(Sc3ncn[nH]3)C2=O)c1 (centres undefined) |  | active: 0.501 µM |
| CCOc1ccc(NC(=O)CC2SC(=O)N(c3ccccc3)C2=O)cc1 (centres undefined) |  | inconclusive [inhibitor, full curve] |
| Cc1cc(C(=O)C(C)Sc2cccc[n+]2[O-])c(C)n1-c1ccc(Cl)cc1 (centres undefined) |  | inconclusive [inhibitor, partial curve] |
| CCOc1ccc(CNC(=O)C2Cc3ccccc3N2C(=O)CC)cc1OC (centres undefined) | inactive: 4.45% |  |
| COCCn1nnnc1C(c1cc2cc(C)ccc2[nH]c1=O)N1CCN(C2CCCCC2)CC1 (centres undefined) | inactive: -0.302% |  |
| CCc1ccc(-n2nc(C)c3c(C)cc(=O)n(Cc4nc(-c5ccccc5)oc4C)c32)cc1 | inactive: 2.14% |  |
| CCc1ccccc1N1CC(C(=O)Nc2cc(S(=O)(=O)N3CCCC3)ccc2Cl)CC1=O (centres undefined) | inactive: -2.43% |  |
| CN(C)/C=C/C(=O)c1ccc([N+](=O)[O-])c(CS(=O)(=O)c2ccc(Cl)cc2)c1 | inactive: -5.38% |  |
| O=C(NCc1ccccc1)N1CCC(n2cnc3cc(F)ccc32)CC1 | inactive: -4.73% |  |
| COC(=O)COc1ccc(S(=O)(=O)NCc2ccco2)cc1 |  | active: 35.5 µM |
| CCC(=O)Nc1ccc(SC#N)cc1C | inactive: 9.74% |  |
| Cc1cc(-c2nnc(CCC(=O)N3CCN(Cc4cccc(F)c4)CC3)o2)c(C)o1 |  | inconclusive [inhibitor, partial curve] |
| COc1ccc(N2CC(O)=C(c3nc4ccccc4s3)C2=N)c(OC)c1 |  | inconclusive [inhibitor, single point] |
| Cc1ccccc1N1C(=O)CC(Nc2ccc3c(c2)OCO3)C1=O (centres undefined) |  | inconclusive [inhibitor, partial curve] |
| O=C(NCc1ccco1)C(c1ccncc1)N(CCC1=CCCCC1)C(=O)Cn1nnc2ccccc21 (centres undefined) |  | active: 44.7 µM |
| O=S(=O)(NCc1ccc(F)cc1)c1ccccc1Br |  | inconclusive [inhibitor, single point] |

| SMILES | activity change, negative = inhibition | Potency |
| --- | --- | --- |
| CC(=C\C(=O)O)/C(=C/c1ccco1)C(=O)O |  | inconclusive [inhibitor, full curve, poor fit] |
| N#CC1=C(N)Oc2n[nH]c(-c3cccnc3)c2C1c1ccc([N+](=O)[O-])o1 (centres undefined) |  | inconclusive [inhibitor, partial curve, poor fit] |
| COC(=O)CCCC1=CC2=CC(=O)C(C)(OC(=O)c3cccs3)C(=O)C2=CN1CC1CC1 (centres undefined) |  | inconclusive [inhibitor, full curve, poor fit] |
| Cc1ccc(C(=O)N2CCN(c3ccc(F)cc3)CC2)cc1S(=O)(=O)N1CCCCC1 | inactive: 2.18% |  |
| O/N=C/c1ccccc1OCc1ccc(Cl)cc1 | inactive: 9.85% |  |
| CCOC(=O)C1=C(C)OC(N)=C(C#N)C1c1cccc(C)c1 (centres undefined) |  | inconclusive [inhibitor, full curve, poor fit] |
| O=C(c1cc2nc(-c3ccco3)cc(C(F)(F)F)n2n1)N1CCN(c2ccccc2)CC1 |  | inconclusive [inhibitor, partial curve] |
| COc1ccc(OC)c(NC(=O)CS(=O)(=O)Cc2nc(-c3ccccc3C)oc2C)c1 |  | inconclusive [inhibitor, partial curve] |
| CCN(Cc1ccccc1)S(=O)(=O)c1ccc(C(=O)N(CCCN(C)C)c2nc3c(C)c(C)ccc3s2)cc1 | inactive: -3.85% |  |
| S=C1NC2=C(CCC/C2=C\c2ccccc2)C(c2ccccc2)N1 (centres undefined) | inactive: -34.7% |  |
| C=CCNC(=S)Nc1ccc2nsnc2c1 |  | inconclusive [inhibitor, partial curve] |
| C=CCN1c2ccccc2[C@]23C[C@@H](C(=O)OC)N(C(=O)NCCC)C2=NC(C(=O)OC)=C(C(=O)OC)[C@H]13 | inactive: 3.69% |  |
| COC(=O)c1sc2nc(CN3CCOCC3)nc(N3CCOCC3)c2c1C |  | inconclusive [inhibitor, partial curve] |
| COc1ccc(/C=N/NC(=O)c2ccc(N3CCCC3=O)cc2)cc1 | inactive: -6.74% |  |
| Nc1c(C(=O)NCc2ccccc2)c2nc3ccccc3nc2n1-c1ccc2c(c1)OCO2 |  | inconclusive [inhibitor, single point] |
| COc1ccc(C2NCCn3cccc32)cc1 (centres undefined) |  | inconclusive [inhibitor, partial curve, poor fit] |
| CCOc1ccccc1NC(=O)N1CC(CC)Oc2ccccc21 (centres undefined) |  | inconclusive [inhibitor, single point] |
| O=C(CN1CCN(c2ccc(O)cc2)CC1)Nc1ccc2c(c1)OCCCO2 |  | inconclusive [inhibitor, partial curve] |
| Cc1ccc2nc(Cl)c(C3CC(c4ccco4)=NN3C(=O)CCCC(=O)O)cc2c1 (centres undefined) |  | active: 35.5 µM |
| Fc1ccc(-c2nnsc2Sc2ccccn2)cc1 | inactive: 9.34% |  |
| Nc1n[nH]c(C2CCCCC2)n1 |  | inconclusive [inhibitor, single point] |
| Cc1n[nH]c(=O)c2c(NC(=O)COC(=O)Cc3ccc(Cl)cc3Cl)oc(C)c12 |  | inconclusive [inhibitor, partial curve] |
| Cc1ccccc1C(C(=O)NCc1ccccc1)N(Cc1ccco1)C(=O)c1ccccn1 (centres undefined) |  | inconclusive [inhibitor, partial curve] |
| Cc1ccc(C(=O)N/C(=C/c2ccco2)C(=O)N2CCCCC2)cc1 |  | inconclusive [inhibitor, full curve, poor fit] |
| Cn1c(Nn2cnnc2)nc2ccccc21 |  | inconclusive [inhibitor, single point] |

| SMILES | activity change, negative = inhibition | Potency |
| --- | --- | --- |
| CC(=O)N1CCN(c2ccc(NCc3ccc(C(C)C)cc3)cc2)CC1 |  | inconclusive [inhibitor, partial curve] |
| CS(=O)(=O)N1N=C(c2ccco2)CC1c1ccco1 (centres undefined) |  | active: 20 µM |
| CCOC(=O)C1CCCN(C2=C(NS(=O)(=O)c3ccc(Br)cc3)C(=O)c3ccccc3C2=O)C1 (centres undefined) |  | inconclusive [inhibitor, partial curve] |
| CC1CCC(NC(=O)CCS(=O)(=O)c2ccc3c(c2)oc(=O)n3C)CC1 (centres undefined) |  | inconclusive [inhibitor, partial curve] |
| CCOC(=O)c1ccc(-n2nc(C)cc2C)cc1 | inactive: 12.4% |  |
| Cc1sc2ncnc(NCC(c3ccco3)N(C)C)c2c1C (centres undefined) | inactive: 6% |  |
| CC1(C)O[C@@H]2[C@H](O1)[C@@H](CO)O[C@H]2n1cnc2c(N)ncnc21 | inactive: 0.861% |  |
| COC(=O)Cc1ccc(O)c(N)c1 |  | inconclusive [inhibitor, full curve, poor fit] |
| ClCc1ncc(-c2ccc(Cl)cc2)o1 |  | active: 25.1 µM |
| O=C1NC(=O)C(=Cc2ccc(-c3ccc(F)cc3O)o2)C(=O)N1 |  | inconclusive [inhibitor, partial curve] |
| CN(Cc1ccco1)C(=O)CCc1nc2sc3c(c2c(=O)[nH]1)CCCC3 | inactive: -10.2% |  |
| O=C(/C=C/c1ccc(F)cc1)c1ccccc1Br | inactive: -26.5% |  |
| CCn1c(SCC(=O)c2ccc3c(c2)OCCO3)nnc1C(C)C |  | inconclusive [inhibitor, single point] |
| CN(C)C(=O)c1ccc(COc2ccccc2Br)o1 |  | inconclusive [inhibitor, partial curve] |
| CCOC(=O)c1cnc2ccc(Br)cc2c1NCCCN1CCOCC1 |  | active: 44.7 µM |
| COc1ccc(NC(=O)c2ccc(-n3c(C)ccc3C)cc2)c(OC)c1 |  | active: 28.2 µM |
| CC(=O)c1c[nH]c(C(=O)NC2CCCCCC2)c1 |  | inconclusive [inhibitor, full curve, poor fit] |
| O=C(c1ccc2oc(Cc3ccc(Cl)cc3)nc2c1)N1CCCCC1CCO (centres undefined) |  | inconclusive [inhibitor, full curve, poor fit] |
| NC(CO)C(=O)NNCc1ccc(O)c(O)c1O (centres undefined) |  | active: 0.316 µM |
| CCN(Cc1ccc(N(C)C)cc1)C(C)C(=O)Nc1ccc(S(=O)(=O)N2CCCC2)cc1 (centres undefined) | inactive: -26.1% |  |
| O=C1C2C3CCCC3=C3CCCC3C2C(=O)N1c1ccc(Cl)cc1 (centres undefined) |  | inconclusive [inhibitor, partial curve, poor fit] |
| CC(=O)Oc1cc2cccc(OC(C)=O)c(=O)c2c(OC(C)=O)c1OC(C)=O |  | inconclusive [inhibitor, partial curve] |
| COc1ccccc1NC(=O)CSc1nc(-c2ccc(C(C)(C)C)cc2)c(C#N)c(=O)[nH]1 |  | inconclusive [inhibitor, single point] |
| COc1cccc(NC(=O)c2cc(-c3ccc(C)o3)nc3ccccc23)c1 |  | active: 35.5 µM |
